The values below come from PubChem BioAssay AID1645882 (National Center for Advancing Translational Sciences (NCATS), 2021).

The campaign covered roughly 16,000 compounds. About 120 (0.75%) were called active. Inconclusive results (about 4%) are left out. Calls follow the shape of the dose curve; as a rule, active = well fitted inhibition curve with a large enough effect; inconclusive = small, poorly fitted or top-dose-only effect; inactive = no such curve, though single readings can be large or run the other way. This is one part of the list.

UniProt O95398, sequence (O95398 whole entry, looked up): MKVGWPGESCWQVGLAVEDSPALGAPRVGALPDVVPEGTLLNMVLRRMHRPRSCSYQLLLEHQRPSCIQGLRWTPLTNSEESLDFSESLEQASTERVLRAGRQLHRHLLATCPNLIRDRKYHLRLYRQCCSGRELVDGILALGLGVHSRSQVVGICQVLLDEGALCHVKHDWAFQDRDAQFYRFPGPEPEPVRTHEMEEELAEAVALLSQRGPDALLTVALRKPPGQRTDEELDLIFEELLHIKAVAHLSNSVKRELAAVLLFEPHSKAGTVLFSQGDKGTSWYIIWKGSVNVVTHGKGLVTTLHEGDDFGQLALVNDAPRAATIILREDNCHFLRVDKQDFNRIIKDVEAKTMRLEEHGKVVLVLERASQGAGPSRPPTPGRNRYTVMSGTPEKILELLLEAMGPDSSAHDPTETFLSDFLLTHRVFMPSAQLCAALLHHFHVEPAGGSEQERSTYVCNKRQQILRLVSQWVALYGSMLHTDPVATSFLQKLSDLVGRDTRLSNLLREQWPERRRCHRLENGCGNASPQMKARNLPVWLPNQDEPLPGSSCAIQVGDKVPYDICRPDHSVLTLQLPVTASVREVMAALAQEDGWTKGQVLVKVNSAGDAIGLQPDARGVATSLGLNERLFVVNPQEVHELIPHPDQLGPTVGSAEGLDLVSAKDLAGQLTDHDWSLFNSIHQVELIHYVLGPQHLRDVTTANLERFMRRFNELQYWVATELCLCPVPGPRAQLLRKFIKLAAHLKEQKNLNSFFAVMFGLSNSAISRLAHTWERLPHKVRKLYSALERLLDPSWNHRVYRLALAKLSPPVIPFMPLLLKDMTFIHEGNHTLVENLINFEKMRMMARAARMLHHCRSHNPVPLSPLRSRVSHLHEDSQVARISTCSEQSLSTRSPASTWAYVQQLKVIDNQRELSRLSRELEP

The experiment addresses Rap guanine nucleotide exchange factor 3 (Homo sapiens) (UniProt O95398). Kind of experiment: Validation qHTS for antagonist of cAMP-regulated guanine nucleotide exchange factor 3 (EPAC1).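 Also: plate controls were DMSO for no effect and ATA control for full effect; nearly all actives have a fitted effect of over 75% in size.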 The conditions noted are these: EPAC1 Rap1B-BODIPY-GDP exchange, fluorescence; series mostly up to 150 µM; activity change, negative = inhibition: at the top concentration. A digest of the protocol:
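Nucleotide exchange followed as fluorescence loss when BODIPY-GDP leaves Rap1B (480 nm excitation, 540 nm emission), read at 5 min intervals over 30 min. Reaction: 100 nM EPAC1, 250 nM RAP1B-BODIPY-GDP, 50 uM GDP; ATA and DMSO define normalization.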
For the compound `CS(=O)(=O)N1CCC[C@@]2(CCN(c3ccccc3)C2)C1`, the “activity change, negative = inhibition” value was inactive: 13.2%.

For the compound `CN1CCN(c2ccnc(-c3cccnc3)n2)CC1`, the “activity change, negative = inhibition” value was inactive: 0.807%.

Turning to `CN(C)c1ccc(CCC2C=Cc3ccccc32)cc1` (stereo unspecified), the “activity change, negative = inhibition” value is inactive: 20.6%.

Take `CN(C)c1ncc2nc(-c3ccc(Cl)cc3)c(=O)n(Cc3cccs3)c2n1`: the “activity change, negative = inhibition” value is inactive: 12.4%.

Turning to `CN1CCN(c2ccnc(-c3ccc(N(C)C)cc3)n2)CC1`, the “activity change, negative = inhibition” value is inactive: 8.41%.

Regarding `O=c1cc(O)c(Cl)c[nH]1`, the “activity change, negative = inhibition” value was inactive: 8.18%.

As to `c1ccc(OCc2ccc(CCCN3CCOCC3)cc2)cc1`, the “activity change, negative = inhibition” value was inactive: 1.88%.

In the case of `O=C(c1ccc(Cn2cnnn2)cc1)N1CCOc2ccc(C(O)C3CCCCC3)cc2C1` (stereo unspecified), the “activity change, negative = inhibition” value is inactive: -14%.

For `O=C(NCCc1nnc2n1CCN(Cc1ccc3c(c1)CCO3)CC2)c1ccco1`, the “activity change, negative = inhibition” value was inactive: 9.17%.

With `CC(C)=CCCC1=CC[C@H](C(=O)O)[C@H](C(=O)O)C1`, the “activity change, negative = inhibition” value is inactive: 15.8%.

Turning to `COc1ccc(OC)c(-c2cc(Cl)c3c(c2)CC(CNC(=O)/C=C/c2ccccn2)O3)c1` (stereo unspecified), the “activity change, negative = inhibition” value is inactive: 2.41%.

`Cc1cccc2cc(CNCCCN3CCCC3=O)c(N3CCN4CCCC4C3)nc12` (stereo unspecified): the “activity change, negative = inhibition” value was inactive: 0.346%.

In the case of `COc1ccc(-n2c(=O)c(C)nc3cnc(N4CCOCC4)nc32)cc1`, the “activity change, negative = inhibition” value is inactive: 8.43%.

Turning to `CN(C)c1ccc(-c2ccc3ncnc(-n4ccnc4)c3c2)cc1`, the “activity change, negative = inhibition” value is inactive: 2.85%.

As to `Cc1cnc(-n2ncc(C(=O)N(C)C3CCOC3)c2C)nc1-c1ccc(F)cc1` (stereo unspecified), the “activity change, negative = inhibition” value was inactive: 11.6%.

For `COc1cc(=O)n2c(c1C(=O)N(C)Cc1nccs1)CCN(Cc1cc3ccccc3s1)CC2`, the “activity change, negative = inhibition” value was inactive: 5.51%.

In the case of `O=c1cc(-c2cccc(O)c2)oc2cc(O)ccc12`, the “activity change, negative = inhibition” value is inactive: -2.47%.

Turning to `CCn1ccnc1CC1COc2ccccc2O1` (stereo unspecified), the activity change, negative = inhibition result is “inactive”.

In the case of `COc1ccc(SC[C@H](Cc2ccccc2)N2CC[C@@H](C)CCC2=O)cc1`, the “activity change, negative = inhibition” value was inactive: -1.96%.

On to `CC(C)=CCC/C(C)=C/CO`, for which the activity change, negative = inhibition result was “inactive”.

With `COc1cccc(C(=O)NCc2nc(-c3cccc(NC(=O)c4ccoc4C)c3)oc2C)c1`, the “activity change, negative = inhibition” value is inactive: -15.8%.

Consider `O=C(NCc1ccccn1)c1cnn(-c2nccc(-c3ccccc3F)n2)c1C1CC1`, for which the “activity change, negative = inhibition” value is inactive: 15.1%.

Take `COc1cc2c(Cc3c4c5c(cc(OC)c(OC)c5c5c(OC)c(OC)ccc35)CCN4C)c3c4c(cc(OC)c(OC)c4c2cc1OC)CCN3C`: the “activity change, negative = inhibition” value was inactive: -8.94%.

Regarding `Cc1ccc(CNc2ncnc3sc(C(=O)N4CCCC(C(N)=O)C4)c(C)c23)o1` (stereo unspecified), the “activity change, negative = inhibition” value was inactive: 10.1%.

In the case of `COc1ccc(-c2nc3cnc(N4CCNCC4)nc3n(-c3ccc(OC)cc3)c2=O)cc1`, the “activity change, negative = inhibition” value was inactive: 6.73%.

As for `O=C1c2ccccc2C(=O)c2c(O)ccc(O)c21`, the “activity change, negative = inhibition” value was inactive: 32.6%.

In the case of `CCC(C(=O)OCCN(CC)CC)c1ccccc1` (stereo unspecified), the “activity change, negative = inhibition” value was inactive: 12.5%.

`CCn1cc(C(=O)O)c(=O)c2cc3c(cc21)OCO3`: the activity change, negative = inhibition entry was “inactive”.

Turning to `COC(=O)Nc1nc2ccc(S(=O)c3ccccc3)cc2[nH]1` (stereo unspecified), the “activity change, negative = inhibition” value was inactive: -2.44%.

As to `Cc1cn(C2CCC(CO)O2)c(=O)[nH]c1=O` (stereo unspecified), the “activity change, negative = inhibition” value is inactive: 11.8%.

For `c1ccc2c(NCCN3CCOCC3)nc(-c3ccc4c(c3)OCO4)nc2c1`, the “activity change, negative = inhibition” value was inactive: -7.23%.

As to `CCCS(=O)(=O)NCc1c(C)ncc2c1CCN(C(=O)c1cccc(-c3ccccc3F)c1)C2`, the “activity change, negative = inhibition” value is inactive: 11.5%.

Take `O=c1cc(-c2ccccc2O)oc2c1ccc1ccccc12`: the “activity change, negative = inhibition” value is inactive: 4.7%.

As for `CC(=O)NCCNc1ncncc1-c1ccc(N(C)C)cc1`, the “activity change, negative = inhibition” value is inactive: 13.1%.

Regarding `COc1ccccc1CN1CCC2(CC1)CCN(S(C)(=O)=O)CC2`, the “activity change, negative = inhibition” value was inactive: 6.7%.

Consider `COc1ccc2cc1Oc1cc3c(cc1OC)CC[N+](C)(C)[C@H]3Cc1ccc(cc1)Oc1c(OC)c(OC)cc3c1[C@@H](C2)[N+](C)(C)CC3`, for which the “activity change, negative = inhibition” value is inactive: 22.2%.

Consider `Cc1ccc2nc(CNC(=O)c3cc(NC(=O)c4ccccc4)cc4ncn(C5CCCC5)c34)cn2c1`, for which the “activity change, negative = inhibition” value is inactive: -0.413%.

Consider `Cn1cccc1C(=O)N1CCC2(CC1)CN(C(=O)Nc1cccc(F)c1)C2`, for which the “activity change, negative = inhibition” value is inactive: -2.87%.

Turning to `COCCn1c(=O)cnc2cnc(OC)nc21`, the “activity change, negative = inhibition” value was inactive: 15.2%.

Consider `CC(=O)c1ccc(F)c(-c2cc(C)cc3c2OC(CNC(=O)Cc2c[nH]c4ccccc24)C3)c1` (stereo unspecified), for which the “activity change, negative = inhibition” value was inactive: 3.68%.

For `CC(C)NC(=O)N1CCCC2(CCN(C(=O)c3csnn3)CC2)C1`, the “activity change, negative = inhibition” value is inactive: 30.2%.

Regarding `NC(=O)N1c2ccccc2C=Cc2ccccc21`, the activity change, negative = inhibition entry is “inactive”.

Take `c1ccc2c(c1)OCC(CN1CCCCC1)O2` (stereo unspecified): the “activity change, negative = inhibition” value is inactive: 7.22%.

On to `COc1ccccc1CN1CCC2(CC1)c1ccccc1[C@@H](NC(=O)c1ccco1)[C@@H]2OC`, for which the “activity change, negative = inhibition” value is inactive: 18%.

As for `Cc1nc2sccn2c1CN1Cc2ccccc2OC(c2ccccc2F)C1` (stereo unspecified), the “activity change, negative = inhibition” value was inactive: 10.2%.

In the case of `C[C@@H]1Nc2ccc(Cl)cc2S(=O)(=O)N1`, the “activity change, negative = inhibition” value was inactive: -13.7%.

Turning to `CCCCCCCCCCCCCC(=O)OCC(COP(=O)([O-])OCC[N+](C)(C)C)OC(=O)CCCCCCCCCCCCC` (stereo unspecified), the “activity change, negative = inhibition” value is inactive: 12.9%.

For `N#Cc1ccccc1OCC(O)CNCCNC(=O)Nc1ccccc1` (stereo unspecified), the “activity change, negative = inhibition” value is inactive: 13.4%.

As for `Cc1nc2cnc(N(C)C)nc2n(C2CC2)c1=O`, the “activity change, negative = inhibition” value is inactive: 21.5%.

With `Cc1ncc[nH]1`, the “activity change, negative = inhibition” value was inactive: 7.29%.

Take `N#CCCn1c(=O)c(-c2ccc(F)cc2)nc2cnc(N3CCNCC3)nc21`: the “activity change, negative = inhibition” value is inactive: 1.52%.
